One may read the IC50 as the concentration needed to halve the response being measured. Higher therefore signals a need for much substance. One may read the Kd as the equilibrium constant for the complex coming apart.

Experimental findings from patent US20220315654A1 (NOVIMMUNE, published 2022) are described below.

Numbering of substitutions follows the chain as printed.

For assay [1], the target named is T1, human PD-L1 on cells (human PD-L1-transfected CHO cells; IFNg-induced HT-1080 tumor cells) (human, UniProt Q9NZQ7).
T1 construct: whole, on cells; CHO transfectants are negative for human CD47; HT-1080 cells also carry CD47; also called hPD-L1-transfected CHO cells; PD-L1+CD47+ HT-1080
The experiment in a line: inhibition of human PD-1-moFc binding to human PD-L1-transfected CHO cells, CellInsight CX5.

The target in assay [2] is T2, recombinant human PD-L1 soluble protein (biotinylated) (human, UniProt Q9NZQ7 fragment, biotinylated).
T2 construct: Bought soluble protein; also called hPD-L1
The experiment in a line: BLI (OctetRED96), biotinylated PD-L1 on streptavidin biosensors, bsAb in solution, 1:1 global fit, 30 °C.

Assay [3] concerns the target T3, human CD47 on cells (Raji, Nalm-6, HT-1080 tumor cells, human red blood cells) (human, UniProt Q08722).
T3 construct: whole, on cells; Raji, Nalm-6 and red blood cells carry no or very little PD-L1; HT-1080 carries both targets; also called IAP
The experiment in a line: flow cytometry on human red blood cells (CD47+, PD-L1-), detection with AF647 anti-human Fc F(ab')2. On the technique in general: A flow cytometer gives signals particle by particle.

B1: K2×S28 CD47×PD-L1 bispecific antibody (bispecific antibody, human IgG1, kappa, lambda)
heavy: [no letters for about 120 residues][no letters for about 100 residues][no letters for human IgG1 Fc]
light 1: DIQMTQSPSSLSASVGDRVTITCRASQSISSYLNWYQQKPGKAPKLLIYAASSLQSGVPSRFSGSGSGTDFTLTISSLQPEDFATYYCQQMHPRAPKTFGQGTKVEIKRTVAAPSVFIFPPSDEQLKSGTASVVCLLNNFYPREAKVQWKVDNALQSGNSQESVTEQDSKDSTYSLSSTLTLSKADYEKHKVYACEVTHQGLSSPVTKSFNRGEC
light 2: QSVLTQPPSASGTPGQRVTISCSGSSSNIAHKPVNWYQQLPGTAPKLLIYHDNSRPSGVPDRFSGSKSGTSASLAISGLQSEDEADYYCAAWDFATWPATEVFGGGTKLTVLGQPKAAPSVTLFPPSSEELQANKATLVCLISDFYPGAVTVAWKADSSPVKAGVETTTPSKQSNNKYAASSYLSLTPEQWKSHRSYSCQVTHEGSTVEKTVAPTECS
notes: also called K2xS28; S28 bsAb
In assay [1], B1 had an IC50 of 0.12 nM. In assay [2], the Kd is 0.7 nM.

B2: K2×S8 CD47×PD-L1 bispecific antibody (bispecific antibody, human IgG1, kappa, lambda)
heavy: [no letters for about 120 residues][no letters for about 100 residues][no letters for human IgG1 Fc]
light 1: B1 light 1
light 2: QSVLTQPPSASGTPGQRVTISCSGSSSNIRDSFVNWYQQLPGTAPKLLIYATNIRPSGVPDRFSGSKSGTSASLAISGLQSEDEADYYCAAWHPYYTLFGGGTKLTVLGQPKAAPSVTLFPPSSEELQANKATLVCLISDFYPGAVTVAWKADSSPVKAGVETTTPSKQSNNKYAASSYLSLTPEQWKSHRSYSCQVTHEGSTVEKTVAPTECS
notes: one CD47 arm (K2) and one PD-L1 arm (S8); also called K2xS8; K2×S8 bsAb
Regarding B2, the Kd in assay [2] was 1.23 nM.

B3: K2×S37 CD47×PD-L1 bispecific antibody (bispecific antibody, human IgG1, kappa, lambda)
heavy: [no letters for about 120 residues][no letters for about 100 residues][no letters for human IgG1 Fc]
light 1: B1 light 1
light 2: B2 light 2 with A91S, H93W, Y95F, Y96G, L98V
notes: also called K2xS37; S37 bsAb
For the molecule B3, in assay [1], the IC50 was 0.14 nM.

B4: K2×S100 CD47×PD-L1 bispecific antibody (bispecific antibody, human IgG1, kappa, lambda)
heavy: [no letters for about 120 residues][no letters for about 100 residues][no letters for human IgG1 Fc]
light 1: B1 light 1
light 2: B1 light 2 with A30E, H31N, N53T, S54T
notes: also called K2xS100; K2×S100 bsAb
As to B4, the Kd in assay [2] turned out to be 0.31 nM. Further, the binding result in assay [3] is reported as “binds”.
